Patent US20070059320A1 (HOSPITAL FOR SICK CHILDREN, published 2007)

Biological target: non-receptor tyrosine kinase Src, native protein in brain lysates, PSD preparations, hippocampal neurons and … (rat, UniProt Q9WUD9)
Assay: GST pull-down from PSD preparations, immunoblot

binding result: no binding
B1: GST alone (other)
chain: not shown
notes: Negative control
